Measured values taken from PubChem BioAssay AID686979 (National Center for Advancing Translational Sciences (NCATS), 2013).
Among all 420,000 compounds or so, about 50,000 (12%) were called active. The shares of active, inactive and inconclusive entries below differ from those in the screen. Calls come from the whole dose curve; as a rule, active = well fitted inhibition curve with a large enough effect; inconclusive = small, poorly fitted or top-dose-only effect; inactive = flat fitted curve, though single readings scatter. Potencies of inconclusive entries are left out as doubtful fits.

Assay: qHTS for Inhibitors of human tyrosyl-DNA phosphodiesterase 1 (TDP1): qHTS in cells in presence of CPT; note: nearly all actives have a fitted effect of over 55% in size
Details: chicken DT40 Tdp1-/-;hTDP1 cells + 20 nM CPT, ATP luminescence, 48 h; activity change, negative = growth inhibition: at 46.2 µM (top of the series) unless noted
Summary of the method: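 Chicken DT40 Tdp1-/- cells stably complemented with human TDP1 were seeded at 400 cells/well in medium containing 20 nM camptothecin, exposed to pin-transferred compounds, and grown at 37 °C for at least 48 hr. Viability was read as ATP luminescence.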
% is set by controls: 0 for no effect and ±100 for the full control effect; potency is the fitted concentration of half-maximal effect; tags give direction and shape of the fitted curve.

| SMILES | Potency | activity change, negative = growth inhibition |
| --- | --- | --- |
| COc1cc2sc(-c3ccccc3OC)c(-c3ccc(O)cc3)c2cc1OC | inconclusive [inhibitor, single point] |  |
| Cc1cc(C(=O)OCC(N)=O)c(C)n1-c1ccccc1 | inconclusive [inhibitor, single point] |  |
| CC(NC(=O)C1CCN(Cc2ccccc2)CC1)c1cccc2ccccc12 (configuration not stated) | inconclusive [inhibitor, single point] |  |
| Cc1cccc(NC(=O)/C(C#N)=C/c2ccccc2Cl)n1 | inconclusive [inhibitor, single point] |  |
| CCc1nc2ccc(C(=O)NCCOc3ccc(OC)cc3)cn2c1N(C)Cc1nccn1C | inactive |  |
| COc1ccc(F)c(CN2CCC3(CCC(CNC(=O)c4cc(C)nn4C)O3)CC2)c1 (configuration not stated) | inconclusive [inhibitor, single point] |  |
| O=C(O)C1CC=CCC1C(=O)N1CCN(c2nc(-c3ccccc3)c3ccccc3n2)CC1 (configuration not stated) | active: 18.4 µM |  |
| C=CCn1c(=O)c(C(=O)Nc2ccccc2C)c(O)c2ccccc21 | inconclusive [inhibitor, single point] |  |
| Cn1cc(/C=C2/SC(=O)N(CC(=O)Nc3ccc4c(c3)OCO4)C2=O)c2ccccc21 | inconclusive [inhibitor, single point] |  |
| COc1ccc(/C=C/c2ccnc3ccccc23)cc1OC | inconclusive [inhibitor, single point] |  |
| COc1ccccc1CNc1nc(NCc2cccs2)nc2ccsc12 | inconclusive [inhibitor, single point] |  |
| O=C(Cn1c(=O)oc2ccc(Cl)cc21)Nc1ccon1 | inactive |  |
| O=C(O)c1ccc(N=Nc2c(O)[nH]c3cc(Cl)ccc23)cc1 | inconclusive [inhibitor, single point] |  |
| O=C(Nc1ccc(S(=O)(=O)N2CCCCC2)cc1)c1ccccc1Cl | inconclusive [inhibitor, single point] |  |
| CC[C@]12c3[nH]c4ccccc4c3CCN1C(=O)C(CC(=O)NC/C=C(\C)CCC=C(C)C)C[C@@H]2C(=O)N1CCN(C(=O)c2ccco2)CC1 (some centres not stated) | active: 16.4 µM |  |
| CC1CCc2c(sc(NC(=O)COC(=O)c3ccc(O)cc3)c2C#N)C1 (configuration not stated) | inactive |  |
| c1ccc(C2c3[nH]c4ccccc4c3CCN2Cc2cccn2-c2cccnc2)nc1 (configuration not stated) | inactive |  |
| Cc1sc(C2C(C#N)=C(N)N(c3ccc(Cl)cc3)C3=C2C(=O)CCC3)cc1CN1CCOCC1 (configuration not stated) | inconclusive [inhibitor, single point] |  |
| CCN(CC)CCNC(=O)c1ccc(NC(=O)c2ccc(Cl)c(S(=O)(=O)N3CCCCCC3)c2)cc1 | inconclusive [inhibitor, single point] |  |
| CC(C)c1ccc(NC(=O)C2(C)Cc3c(-c4ccc(N(C)C)cc4)ccnc3O2)cc1 (configuration not stated) | inconclusive [inhibitor, single point] |  |
| Cc1ccsc1CN(C(=O)COc1ccccc1Cl)C1CCS(=O)(=O)C1 (configuration not stated) | inconclusive [inhibitor, single point] |  |
| O=[N+]([O-])c1nn(-c2ccc(Cl)cc2)n(O)c1=NCc1cccnc1 | active: 8.2 µM |  |
| COc1ccc(NC(=O)CN(C)C(=O)c2ccc(NS(=O)(=O)c3cccc([N+](=O)[O-])c3)cc2)cc1 |  | inconclusive: -30.8% [inhibitor] |

| SMILES | Potency | activity change, negative = growth inhibition |
| --- | --- | --- |
| CCc1ccccc1NC(=O)CN(c1ccccc1OC)S(=O)(=O)c1ccc(C)cc1 | inconclusive [inhibitor, single point] |  |
| COc1cccc(NC(=O)c2ccc3c(c2)N(CC(=O)N2CCOCC2)C(=O)C(C)(C)O3)c1 | inactive |  |
| O=C(CSc1cccc[n+]1[O-])Nc1ccc([N+](=O)[O-])cc1Cl | inconclusive [inhibitor, single point] |  |
| Cc1cccc(OCC(=O)O/N=C(\N)c2ccncc2)c1 | inactive |  |
| CSc1ncccc1C(=O)N1CCN(S(=O)(=O)c2ccc3c(c2)OCCO3)CC1 | inconclusive [inhibitor, single point] |  |
| OC(c1ccc(Cl)c(F)c1)c1ncc(-c2cccc3ccccc23)[nH]1 (configuration not stated) | inconclusive [inhibitor, single point] |  |
| Cn1cc(/C=C/C(=O)N2CCCC(C(=O)c3ccc(C(C)(C)C)cc3)C2)cn1 (configuration not stated) | inconclusive [inhibitor, single point] |  |
| N#C/C(=C/c1ccc(-c2ccc(S(=O)(=O)N3CCOCC3)cc2)o1)C(=O)NC1CC1 | inactive |  |
| C=C1C(=O)O[C@@H]2C[C@@H](C)[C@@H]3C=CC(=O)[C@@]3(C)[C@@H](OC(C)=O)[C@H]12 | active: 0.82 µM |  |
| COc1c2c(cc3oc(=O)ccc13)OC(C)(C)C=C2 | inconclusive [inhibitor, single point] |  |
| CCCNC(=O)c1csc(Nc2cccc3ccccc23)n1 | inconclusive [inhibitor, single point] |  |
| CCOC(=O)[C@H]1[C@H]2COc3cc(OC)ccc3[C@@H]2N2C(=O)CN(CCc3c[nH]c4ccccc34)C(=O)[C@@]12C | inconclusive [inhibitor, single point] |  |
| CCC(C(=O)NC1CCCCC1)n1c(SCc2ccccc2F)nc2ccncc21 (configuration not stated) | inconclusive [inhibitor, single point] |  |
| NC(=O)c1c(NC(=O)Cc2ccccc2)sc2c1CCN(Cc1ccccc1)C2 | active: 11.6 µM |  |
| COC(=O)c1ccc(Oc2nc(NC(C)C)nc(N(C)C)n2)cc1 | inconclusive [inhibitor, single point] |  |
| Cc1nc(SCC(=O)Nc2ccc3c(c2)OCCO3)nc(C)c1C | inconclusive [inhibitor, full curve, poor fit] |  |
| Cc1ccn2cc(-c3cccc(S(=O)(=O)N4CCCC4)c3)nc2c1 | active: 18.4 µM |  |
| O=C(Nc1ccccc1F)Nc1cccc2ccc(O)cc12 | active: 16.4 µM |  |
| Cn1cc(S(=O)(=O)N2CCOCC2)cc1C(=O)Nc1cccc(Cl)c1 | inactive |  |
| COc1ccc(CSc2cccc3cccnc23)cc1[N+](=O)[O-] | inconclusive [inhibitor, single point] |  |
| CCS(=O)(=O)N1CCC(NC(=O)C(Cc2cccc(OC)c2OC)NC(C)=O)CC1 (configuration not stated) | inactive |  |
| O=C(O)c1cccc(NC(=S)NC(NC(=O)c2cccc([N+](=O)[O-])c2)C(Cl)(Cl)Cl)c1 (configuration not stated) | inactive |  |
| COc1ccc(Nc2nc3ccccc3nc2NS(=O)(=O)c2ccc(NC(C)=O)cc2)cc1 | inactive |  |

| SMILES | Potency | activity change, negative = growth inhibition |
| --- | --- | --- |
| O=C(c1ccccc1)c1ccc2nc(N3CCCCC3)c3nncn3c2c1 | active: 23.1 µM |  |
| Cc1cccc(OC(C)C(=O)Nc2nccs2)c1 (configuration not stated) | inactive |  |
| CCOC(=O)c1ccc(NC(=O)CSc2nnc(CCc3ccc(C)o3)n2-c2ccccc2)cc1 | inconclusive [inhibitor, single point] |  |
| CCc1ccc(Nc2c([N+](=O)[O-])c(=O)oc3ccccc23)cc1 | inconclusive [inhibitor, full curve] |  |
| CSc1ncnc2c1ncn2CCCNCC(c1ccccc1)c1ccccc1 | inconclusive [inhibitor, single point] |  |
| CC(C)c1nc(=S)c2ccccc2[nH]1 | inconclusive [inhibitor, single point] |  |
| Cc1ccccc1C(=O)Nc1cccc(NC(=O)c2ccc(C(C)(C)C)cc2)c1 | active: 8.2 µM |  |
| CCOc1cc(/C=N/NC(=O)c2cccc([N+](=O)[O-])c2)ccc1OS(=O)(=O)c1ccccc1 | inconclusive [inhibitor, single point] |  |
| CCc1ccc(NC(=O)CSc2ccc(-c3sc(-c4ccccc4)nc3C)nn2)cc1 | inconclusive [inhibitor, partial curve] |  |
| CCCCC1=NN(C(=O)c2ccco2)C(O)(C(F)(F)F)C1 (configuration not stated) | active: 0.517 µM |  |
| O=C(NCC1CCCCC1)c1cc(S(=O)(=O)N2CCCCC2)ccc1Cl |  | inconclusive: -31.6% [inhibitor] |
| COc1ccc(-n2c(SCC(=O)NCC3CCCO3)nc3n[nH]c(C)c3c2=N)cc1 (configuration not stated) | inconclusive [inhibitor, single point] |  |
| Cc1nn(C(C)C(=O)NCCc2ccccc2)c(=O)c2c1sc1ccccc12 (configuration not stated) | inconclusive [inhibitor, single point] |  |
| O=C(COC(=O)C1(c2ccc(F)cc2)CCCC1)N1CCNC1=O | inactive |  |
| CCc1nc2c(OCC(=O)c3ccc(F)cc3)cccn2c1N(C)C(=O)COc1ccccc1 | inconclusive [inhibitor, single point] |  |
| Cc1ccc(C(CNS(=O)(=O)c2ccccc2)N2CCN(C)CC2)cc1 (configuration not stated) | inconclusive [inhibitor, single point] |  |
| COc1ccc(C(=O)COc2ccc3ccc(=O)oc3c2)c(OC)c1 | inconclusive [inhibitor, partial curve] |  |
| C#CCN1C(=O)S/C(=C/c2cc(C)n(CC)c2C)C1=O | inconclusive [inhibitor, partial curve] |  |
| CCN(Cc1ccccc1)c1nc2c(S(=O)(=O)c3ccccc3)nnn2c2ccc(Cl)cc12 | inconclusive [inhibitor, single point] |  |
| COc1ccc(CN=C(N)N=C(N)N)cc1Cl | inconclusive [inhibitor, partial curve] |  |
| O=C(c1cccc(OC2CCN(Cc3ccc(F)cc3Cl)CC2)c1)N1CCCC1 | active: 20.6 µM |  |
